We go through 110 compounds from PubChem BioAssay AID488969 (Vanderbilt High Throughput Screening Facility, 2010).

In all, about 110,000 compounds were measured (“z-score”: median about -0.1, highest 2% from about 2 on). The list shows a part of the results. Active and inactive are the calls of the source.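 The calls were made as follows: active = z-score in the third read window above 3 or below -3; inactive = the rest.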

This test concerns the target Metabotropic glutamate receptor 8 (Rattus norvegicus) (UniProt P70579). The test is described as follows: rat mGluR8 modulators via GIRK flux, primary screen, cell-based, thallium flux, HTS (AID 488969). As to conditions: HEK293 rat mGluR8, GIRK (G protein-gated inwardly rectifying potassium channel) thallium flux, FluoZin2; at 10 µM; stronger effect = higher value; submaximal glutamate (EC20) added with thallium.
Chain of UniProt P70579 (P70579 whole entry, looked up): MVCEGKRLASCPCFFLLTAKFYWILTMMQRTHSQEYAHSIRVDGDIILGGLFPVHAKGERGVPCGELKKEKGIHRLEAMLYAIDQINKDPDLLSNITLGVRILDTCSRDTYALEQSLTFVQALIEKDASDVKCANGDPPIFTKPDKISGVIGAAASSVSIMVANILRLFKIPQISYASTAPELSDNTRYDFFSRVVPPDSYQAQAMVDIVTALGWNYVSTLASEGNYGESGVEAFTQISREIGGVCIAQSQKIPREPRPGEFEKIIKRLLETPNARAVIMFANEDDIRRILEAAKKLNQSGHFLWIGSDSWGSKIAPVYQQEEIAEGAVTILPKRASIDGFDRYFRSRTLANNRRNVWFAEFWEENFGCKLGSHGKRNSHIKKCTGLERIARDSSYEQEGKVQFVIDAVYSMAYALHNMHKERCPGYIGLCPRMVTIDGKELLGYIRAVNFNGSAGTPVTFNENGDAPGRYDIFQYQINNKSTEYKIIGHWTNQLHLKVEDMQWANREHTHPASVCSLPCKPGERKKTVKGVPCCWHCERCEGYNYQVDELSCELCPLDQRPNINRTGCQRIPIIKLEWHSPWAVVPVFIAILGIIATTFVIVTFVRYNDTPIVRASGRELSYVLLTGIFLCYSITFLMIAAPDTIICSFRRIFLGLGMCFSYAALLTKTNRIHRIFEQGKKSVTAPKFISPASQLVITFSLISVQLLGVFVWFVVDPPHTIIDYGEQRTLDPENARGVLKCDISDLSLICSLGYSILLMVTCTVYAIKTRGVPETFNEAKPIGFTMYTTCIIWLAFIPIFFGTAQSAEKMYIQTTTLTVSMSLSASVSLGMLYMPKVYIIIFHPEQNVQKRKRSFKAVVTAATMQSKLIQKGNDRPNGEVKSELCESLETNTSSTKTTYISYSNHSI
In turn, `CO/N=C(/CS(=O)(=O)Cc1ccccc1Cl)c1ccc(Cl)cc1Cl` displayed a z-score of -0.328.

For `Cc1ccc(SCCC(=O)N2CCCC2)cc1`, the z-score worked out at 0.426.

For the compound `O=S(=O)(c1ccc(S(=O)(=O)n2cnc3ccccc32)cc1)N1CCCCCC1`, the z-score is -1.

`CNC(=O)COc1cccc(C(=O)NCc2ccccc2)c1`: the z-score was -0.158.

In turn, `COc1cccc(OCC(=O)Nc2ccccc2NC(C)=O)c1` showed a z-score of 0.489.

As for `CCn1cnc2sc(C(=O)Nc3ccc4c(c3)OCO4)c(C)c2c1=O`, the z-score is -0.145.

In the case of `O=C(NCCc1nc2ccccc2[nH]1)c1ccco1`, the z-score is -0.563.

In turn, `N#Cc1c(N)nc2c(c1-c1ccncc1)CCCCC2` displayed a z-score of -0.3.

`CCCSc1nc(N2CCOCC2)c2c(c1C#N)CC(C)(C)SC2` registered a z-score of -0.252.

For the compound `CC(C)OC(=O)CSc1nc(-c2ccc(F)cc2)cc(C(F)(F)F)n1`, the z-score was -0.0192.

`O=C(NCc1ccc2c(c1)OCO2)c1ccc(-n2cnnn2)cc1` gave a z-score of 0.434.

The compound `CCOC(=O)CSc1nnc(C2CCCCC2)n1C` returned a z-score of 0.0879.

`Cc1ccc(OCc2ccc(C(=O)Nc3nc4ccccc4n3Cc3ccccc3)o2)c([N+](=O)[O-])c1` yielded a z-score of -0.175.

As to `O=C(O/N=C/C1=C(Cl)c2ccccc2CC1)c1ccc(F)cc1`, the z-score was determined as 0.133.

Regarding `Fc1ccc2nc(Nc3nc4c(s3)CCCC4)sc2c1`, the z-score was found to be 0.157.

Turning to `CCOC(=O)C1CCCN(C(=O)c2cc3c(=O)n4cccc(C)c4nc3n2C)C1` (stereo not given), the z-score was -0.803.

As to `Nn1c(Cc2cccc3ccccc23)nnc1SCC(=O)NC1CCS(=O)(=O)C1` (stereo not given), the z-score came to 1.

Regarding `O=C1c2ccccc2S(=O)(=O)N1CC(O)Cn1c2ccccc2c2ccccc21` (stereo not given), the z-score amounted to 0.428.

Turning to `CCOc1ccccc1N1CCN(C(=S)NC(=O)C23CC4CC(CC(C4)C2)C3)CC1`, the z-score was active: 4.1.

The compound `COc1cccc(C(=O)/C=C/c2ccc(SC)cc2)c1` gave a z-score of 0.0506.

As to `CC1CCc2nn(CC(=O)NCCCN3CCCC3=O)cc2C1` (stereo not given), the z-score is -0.239.

Take `COc1ccc2oc(=O)c(C(C)=O)cc2c1`: the z-score was -0.473.

In turn, `CC1CCN(C(=O)CSc2nc3ccccc3c(=O)n2Cc2ccc3c(c2)OCO3)CC1` registered a z-score of 2.16.

Regarding `COc1cccc(-n2nnc3c(=O)n(Cc4ccc(C)cc4)cnc32)c1`, the z-score turned out to be 0.0962.

`COc1ccc(OC)c(NC(=O)COC(=O)CN(C)S(=O)(=O)c2ccc(C)cc2)c1` yielded a z-score of -0.536.

In turn, `O=C(NCCCN1CCOCC1)C(C(=O)c1ccccc1)n1ccccc1=O` (stereo not given) showed a z-score of -0.175.

In the case of `Cc1c(Cl)cnc(NC(=O)COC(=O)C(NC(=O)c2ccco2)C(C)C)c1Cl` (stereo not given), the z-score was -1.73.

`CNC(=O)CSc1nnc(-c2cccnc2)n1CCc1ccccc1` showed a z-score of 0.335.

`Cc1nc2nc(Cc3ccccc3)[nH]n2c(=O)c1Cl` had a z-score of -2.38.

`O=C(NC1(C(=O)NC2CCCCC2)CCCCC1)c1ccccn1` showed a z-score of -0.2.

On to `Cc1nn(-c2ccccc2)c(N2CCCC2)c1/C=C1\N=C(c2ccccc2)OC1=O`, for which the z-score is -0.333.

Turning to `Cc1onc(-c2ccccc2Cl)c1C(=O)N1CCN=C1SCc1cccnc1`, the z-score is -0.157.

As for `c1ccc2sc(NC3=NCN(Cc4ccc5c(c4)OCO5)CN3)nc2c1`, the z-score is -0.226.

Take `Cc1noc(C)c1COc1ccc(C(=O)OC(C)C(=O)Nc2ccc(S(=O)(=O)N3CCOCC3)cc2)cc1` (stereo not given): the z-score stood at 0.0892.

In turn, `Cc1nnc(NC(=O)CSCc2ccccc2)s1` registered a z-score of 0.148.

`Cc1ccsc1-c1nc(-c2ccccc2)c(-c2ccccc2)[nH]1` showed a z-score of -0.0246.

`O=C(CCn1ccc2ccccc21)NC1CCCc2ccccc21` (stereo not given): the z-score is -0.387.

`CCOC(=O)C1CCCN(c2nc3ccccc3nc2C(C#N)C(=O)NCc2ccccc2)C1` (stereo not given): the z-score is -1.4.

`CCOc1ccc2nc(SCc3ccc(C(=O)OC)o3)[nH]c2c1` gave a z-score of -0.628.

For the compound `NC(=O)C1CCN(C(=O)C2CCN(S(=O)(=O)c3ccccc3)CC2)CC1`, the z-score amounted to 0.78.

In turn, `COC(=O)CSc1nc2sc3c(c2c(=O)n1-c1ccccc1)CCN(C)C3` registered a z-score of 0.144.

`Cc1ccc2c(Cl)c(C(=O)NCCCn3ccnc3)sc2c1`: the z-score is -0.348.

`CCOC(=O)c1c(NC(=O)CN2CCCCC2)sc2c1CCN(C(=O)OCC)C2` displayed a z-score of 0.0144.

In the case of `COc1ccc(NC(=S)Nc2cc(C)ccn2)c(OC)c1`, the z-score is -0.121.

As for `O=C(CSC1=NCCS1)Nc1ccc(S(=O)(=O)NC2CCCCC2)cc1`, the z-score was found to be 0.0744.

Regarding `COc1ccc(Nc2ncnc3c2cnn3Cc2ccccc2)cc1OC`, the z-score was -0.181.

As to `COc1ccccc1N1CCN(C(CNS(=O)(=O)c2ccc(C)cc2)c2cccnc2)CC1` (stereo not given), the z-score was -0.377.

The compound `Cc1cccc2sc(NC(=O)C3CCN(S(=O)(=O)c4cc([N+](=O)[O-])ccc4Cl)CC3)nc12` returned a z-score of 0.0365.

On to `Cn1c(C(=O)NCCN2CCc3ccccc3C2)cc2c(=O)n(C)c3ccccc3c21`, for which the z-score was determined as 2.7.

`Cc1oc(-c2ccccc2Cl)nc1CSCC(=O)N1CCCC1` had a z-score of 0.236.

With `Cc1ccc(S(=O)(=O)Cc2ccccc2Cl)cc1`, the z-score was -0.187.

`CCC(C(=O)NCc1ccco1)N(C(=O)CNS(=O)(=O)c1ccccc1)c1ccc(OC)cc1` (stereo not given) returned a z-score of -0.622.

The compound `CCOc1ccc(Oc2c(/C=N/NC(=O)C3CC3)c(C)nn2-c2ccccc2)cc1` had a z-score of 0.189.

Consider `O=S(=O)(NC1CCCCC1)c1ccc(F)c2ccccc12`, for which the z-score was 0.851.

Compound `O=C(NC(Nc1ncc(S(=O)(=O)c2ccc([N+](=O)[O-])cc2)s1)(C(F)(F)F)C(F)(F)F)c1ccc(Cl)cc1` showed a z-score of 0.648.

As for `Cc1ccc(-c2cnc(NC(=O)c3cccc(Br)c3)s2)c(C)c1`, the z-score was -0.494.

As for `COc1cc(CNc2ccc3[nH]c(=O)[nH]c3c2)cc(Cl)c1OCC(=O)NC(C)(C)C`, the z-score is 0.206.

Consider `COc1ccc(/C(C)=N\NC(=O)CSc2nnc(C)s2)cc1`, for which the z-score was 0.105.

`O=C(CCc1nc2ccccc2s1)OCc1ccccc1` showed a z-score of -0.24.

Turning to `CCCCn1nnc(NC(=O)c2cc3ccccc3o2)n1`, the z-score is -0.00864.

For `O=C(c1cc(-c2ccccc2O)on1)N1CCc2ccccc2C1`, the z-score came out at 0.426.

As for `O=C(CSCc1ccc(Cl)cc1)Nc1ccc2c(c1)OCO2`, the z-score amounted to 0.863.

Turning to `Cc1cccc(C)c1OCC(=O)NCc1nnc(SCC(=O)NC2CCCCC2)n1C`, the z-score was -0.406.

The compound `COc1ccccc1N1CCN(C(=O)c2cc(N3C(=O)C4C5CCC(C5)C4C3=O)ccc2Cl)CC1` (stereo not given) showed a z-score of 0.256.

For the compound `Cc1ccc2nc(NC(=O)COC(=O)CSc3nc(C)cc(C)n3)sc2c1`, the z-score is -0.273.

The compound `CC(=O)c1ccccc1OCC(O)CN1CCN(C(c2ccccc2)c2ccccc2)CC1` (stereo not given) displayed a z-score of 0.908.

On to `CCOC(=O)c1cnc2c(cnn2C)c1NCCC#N`, for which the z-score was -0.0584.

For `Cc1ccc(-n2c(C)cc(C3=NNC(=NC4CC4)SC3)c2C)cc1C`, the z-score was found to be 0.236.

With `CC(C)(C)NC(=O)/C(=C/c1ccco1)c1ccccc1`, the z-score is -0.0597.

Turning to `CCOC(=O)c1c(NC(=S)Nc2ccccc2)sc2c1CCN(CC)C2`, the z-score is -0.00236.

The compound `N#Cc1ccc(-c2csc(NC3=NCCCCC3)n2)cc1` yielded a z-score of -2.16.

On to `CN1CCN(CCNC(=O)Nc2ccccc2C(F)(F)F)CC1`, for which the z-score is -0.464.

`Cc1oc(-c2ccccc2F)nc1CS(=O)CC(=O)NCc1cccs1` (stereo not given) displayed a z-score of -0.253.

On to `CC(=O)[C@@H]1[C@@H]2C(=O)N(C3CCCCC3)C(=O)[C@@H]2C2c3ccccc3C=CN21` (stereo not given in full), for which the z-score is 0.56.

`CCC(C)NS(=O)(=O)c1ccc(NC(C)=O)cc1` (stereo not given) yielded a z-score of 0.254.

In turn, `C=CCOc1c(Br)cc(CNc2nccs2)cc1OC` had a z-score of -0.161.

The compound `CC(C)OC(=O)c1cccc(C(=O)Oc2ccccc2)n1` gave a z-score of -0.633.

Take `COc1ccc(S(=O)(=O)NC2CCCC2)cc1Br`: the z-score was -1.19.

The compound `CCCC(=O)OCC(=O)Nc1ccc(N=Nc2ccccc2)cc1` gave a z-score of 0.427.

With `CCNc1ccc(C(=O)OCC)cc1NC(=O)c1cccc(N(C)C)c1`, the z-score came to 0.628.

With `O=[N+]([O-])c1ccccc1/C=N/N1CCN(c2ccccn2)CC1`, the z-score is 0.0626.

`Cc1cccc(C)c1OCc1nnc(SCC(=O)Nc2nccs2)o1`: the z-score was 0.503.

With `C/C(=N\NC(=S)Nc1cccc(C)c1)c1cccc(N)c1`, the z-score is active: 3.42.

On to `c1ccc(-n2ncc3c(NCc4ccco4)ncnc32)cc1`, for which the z-score is -0.23.

The compound `COc1ccc(CNC(=O)COC(=O)CC2CC3CCC2C3)cc1OC` (stereo not given) returned a z-score of -0.113.

`O=C(c1cnc2sccn2c1=O)N1CCc2ccccc2C1` displayed a z-score of -0.156.

`COc1ccc(/C=N/c2c(-c3ccc(OC)cc3)nc3n2CCS3)cc1` came in with a z-score of 0.116.

As to `C=CCNC(=O)c1onc(CSc2ccc(C(C)C)cc2)c1C(=O)O`, the z-score is -0.328.

For the compound `Cc1n[nH]c(C)c1S(=O)(=O)N1CCOCC1`, the z-score was -0.233.

`Cc1nc2cccc(C(=O)NC3CCCCC3)c2o1`: the z-score was -0.186.

With `O=C(CCN1CCCCCC1)c1ccccc1`, the z-score was found to be 0.0945.

Compound `COc1ccc(-n2c(=S)[nH]c3cc(C(=O)Nc4ccccc4OC)ccc3c2=O)cc1` had a z-score of -0.173.

For `O=c1c(S(=O)(=O)c2ccc(Cl)cc2)cn(Cc2cccc(F)c2)c2ccc(F)cc12`, the z-score was -0.35.

In turn, `Cc1cccc(-n2c(Cc3ccccc3)nnc2SCC(=O)N2CCOCC2)c1` came in with a z-score of -0.629.

Turning to `O=C(Nc1ccc(Br)cc1F)c1sccc1-n1cccc1`, the z-score is -0.118.

Compound `COCC(C)NC(C(=O)Nc1ccc(Cl)c([N+](=O)[O-])c1)c1ccccc1` (stereo not given) gave a z-score of -0.243.

Turning to `CCOC(=O)CCCn1nc(C)n2c(cc3sccc32)c1=O`, the z-score turned out to be 0.215.

Turning to `CCC(=O)NC(Nc1sc2c(c1C(=O)OC)CCN(C)C2)(C(F)(F)F)C(F)(F)F`, the z-score worked out at 0.38.

`O=C(Nc1nc2nc(-c3ccccc3)cc(=O)n2[nH]1)c1ccccc1` came in with a z-score of -0.0872.

The compound `Oc1ccccc1-c1nnc(SCCN2CCOCC2)n1Cc1ccccc1` came in with a z-score of 0.562.

Consider `CCc1nnc(NC(=O)CSc2nc3cccnc3n2Cc2ccccc2)s1`, for which the z-score is -0.658.

The compound `O=C(CCN1C(=O)c2ccc([N+](=O)[O-])cc2C1=O)Nc1cccc(O)c1` showed a z-score of 0.128.

For the compound `CCN(c1cccc(C(F)(F)F)c1)S(=O)(=O)c1ccc2c(c1)CCN2C(=O)C1CC1`, the z-score is 0.506.

In the case of `O=C(CC1CC2CCC1C2)OCC(=O)c1c[nH]c2ccccc12` (stereo not given), the z-score was 0.111.

In the case of `CCN(CC)CCCN1C(=O)c2oc3ccccc3c(=O)c2C1c1cc(OC)ccc1OC` (stereo not given), the z-score turned out to be 0.517.

`COc1ccc(N2CCN(C(=O)C3COc4ccccc4O3)CC2)cc1` (stereo not given) yielded a z-score of -0.0793.

`CCOc1ccccc1-c1nc(-c2cccc(Br)c2)no1` came in with a z-score of -0.613.

Turning to `COc1ccc(C(CCN(Cc2ccc(OC)c(OC)c2)C(=O)CCl)c2ccccc2)cc1` (stereo not given), the z-score was -2.14.

The compound `COCC(=O)Nc1ccccc1NC(C)=O` yielded a z-score of -0.363.

As to `O=S(=O)(Nc1ccc(S(=O)(=O)N2CCCCC2)cc1)c1cccs1`, the z-score was determined as 0.205.
